# About 2,200 (0.71%) of roughly 310,000 compounds showed an effect of 50% or more. The effect is printed as a negative number. Some of the results follow. Where a SMILES comes first, the peptide text is derived from it. The star is where a group is joined. Boc = CC(C)(C)OC(=O)*; OBn = c1ccc(CO*)cc1
# Biological target: human ether-à-go-go-related gene (hERG) potassium channel (human, UniProt Q12809)
# Assay: primary screen, population patch clamp on CHO cells stably expressing hERG
# Sequence of human ether-à-go-go-related gene (hERG) potassium channel (Q12809 whole entry, looked up): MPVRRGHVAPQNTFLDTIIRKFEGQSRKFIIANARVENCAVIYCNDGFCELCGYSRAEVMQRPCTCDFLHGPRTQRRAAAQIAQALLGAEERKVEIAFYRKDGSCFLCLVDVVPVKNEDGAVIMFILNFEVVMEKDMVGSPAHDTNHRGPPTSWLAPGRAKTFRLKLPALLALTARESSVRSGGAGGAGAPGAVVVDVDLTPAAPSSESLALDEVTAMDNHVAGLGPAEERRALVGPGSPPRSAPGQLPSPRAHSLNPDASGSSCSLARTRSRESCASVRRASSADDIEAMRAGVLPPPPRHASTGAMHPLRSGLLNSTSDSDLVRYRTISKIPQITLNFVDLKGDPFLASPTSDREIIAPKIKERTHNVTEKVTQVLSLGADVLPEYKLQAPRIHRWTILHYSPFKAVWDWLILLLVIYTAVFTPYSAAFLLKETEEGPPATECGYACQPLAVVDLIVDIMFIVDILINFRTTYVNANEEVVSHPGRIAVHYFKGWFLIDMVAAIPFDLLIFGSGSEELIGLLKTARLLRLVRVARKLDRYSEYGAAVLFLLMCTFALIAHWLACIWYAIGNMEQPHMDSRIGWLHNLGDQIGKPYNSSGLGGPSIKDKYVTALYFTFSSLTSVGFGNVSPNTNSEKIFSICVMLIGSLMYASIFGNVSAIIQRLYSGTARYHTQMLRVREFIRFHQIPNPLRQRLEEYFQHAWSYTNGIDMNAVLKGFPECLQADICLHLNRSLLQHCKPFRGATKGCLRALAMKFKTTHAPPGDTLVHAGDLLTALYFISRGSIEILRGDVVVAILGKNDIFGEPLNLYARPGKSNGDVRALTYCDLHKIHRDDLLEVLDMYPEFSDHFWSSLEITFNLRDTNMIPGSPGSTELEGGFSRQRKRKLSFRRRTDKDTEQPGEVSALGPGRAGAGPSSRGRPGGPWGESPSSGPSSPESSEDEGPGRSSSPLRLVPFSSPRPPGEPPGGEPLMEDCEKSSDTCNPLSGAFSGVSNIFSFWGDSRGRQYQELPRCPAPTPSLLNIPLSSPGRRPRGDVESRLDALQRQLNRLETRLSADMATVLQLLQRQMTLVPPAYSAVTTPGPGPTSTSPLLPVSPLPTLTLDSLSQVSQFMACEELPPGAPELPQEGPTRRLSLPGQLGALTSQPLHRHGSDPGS
row,SMILES,"hERG current change (%, negative = inhibition) at 1uM"
1,Cc1nnsc1S(=O)c1ccc(Br)cc1 (centres unmarked),3.94%
2,COc1ccc(C(CNC(=O)c2cncc(Br)c2)N(C)C)cc1 (centres unmarked),9.77%
3,OC1(C2(O)CC(c3ccccc3)ON2)CCCCC1 (centres unmarked),8.29%
4,Cc1ccc(C)c(OCCC(=O)N(C)CC(=O)Nc2c(C)cccc2C)c1,7.74%
5,CCO/C=C1/C(=O)N(CC)c2ccccc21,-2.38%
6,O=C(c1ccc(-n2cnnn2)cc1)N1CCOCC1,1.95%
7,CCCCC(CC)CNS(=O)(=O)c1ccc2c(c1)CCN2C(=O)CCC(=O)O (centres unmarked),-7.11%
8,Cn1c(=O)c2c(ncn2CC(=O)N(Cc2ccccc2)c2ccccn2)n(C)c1=O,-7.98%
9,Clc1ccc(Cn2cc(/C=N/n3cnnc3)c3ccccc32)cc1,3.49%
10,Cc1c(N(C(=O)Cc2cccs2)C2(C(=O)NC3CCCC3)CCCCC2)c(=O)n(-c2ccccc2)n1C,-2.88%
11,C/C(CC(C)C)=N\NC(=O)Nc1ccccc1,-7.03%
12,Cc1nc2cc(N3CCOCC3)c(NC(=O)C3CC3)cc2c(=O)n1Cc1ccccc1,-11.2%
13,CC1=Nn2c(nnc2-c2cc(-c3ccccc3)n[nH]2)SC1,3.72%
14,O=C(CCN1C(=O)c2cccc3cccc(c23)C1=O)NCc1cccnc1,3.56%
15,COc1cccc(OC)c1C(=O)N1CCN(Cc2ccc3c(c2)OCO3)CC1,-0.604%
16,CS(=O)(=O)N1CCc2cc(C(=O)Nc3ccc(O)cc3)ccc21,13.2%
17,O=C(Nc1ccccc1N1CCCCC1)c1cccc(Cl)c1,13.8%
18,CNS(=O)(=O)c1cccc(C(=O)OC2CCOC2=O)c1 (centres unmarked),9.68%
19,O=C(NC1CCCCCCC1)c1cccs1,12.6%
20,Cc1ccsc1C(=O)NNC(=O)c1ccc(NS(=O)(=O)c2cccs2)cc1,17.2%
21,COc1ccccc1N1CCN(C2CCCN(C(=O)CCN3CCCCO3)C2)CC1 (centres unmarked),12.6%
22,CN(C)c1ccc(C(C(=O)NC2CCCCC2)N(Cc2ccco2)C(=O)c2snc(C(N)=O)c2N)cc1 (centres unmarked),1.21%

row,SMILES,"hERG current change (%, negative = inhibition) at 1uM"
1,O=C(O)Cn1c(=O)c2c3c(sc2n(Cc2ccc(F)cc2)c1=O)CCCC3,10.4%
2,CCCCNC(=O)Nc1nc2ccccc2s1,5.19%
3,Cc1nnc2sc(-c3csc4c3CCCC4)nn12,4.8%
4,COc1ccccc1NS(=O)(=O)c1ccc(N/N=C/c2ccccc2OCC(=O)O)c([N+](=O)[O-])c1,9.02%
5,Cc1cccn2cc(CCNC(=O)c3cccs3)nc12,10.9%
6,CC(=O)c1c(C)[nH]c(C(=O)N2CCN(S(=O)(=O)c3ccc(C)cc3C)CC2)c1C,8.35%
7,CCN(CC)C(=O)CSc1ncnc2c1nnn2-c1ccc(F)cc1,10.3%
8,O=C1c2sc3nc4c(c(=O)n3c2C(=O)N1c1ccccc1)CCC4,12.3%
9,O=C(CN(C(=O)c1csnn1)c1cccc(F)c1)NC1CCCC1,20.2%
10,Cn1c(NNC(=O)c2cccc3ccccc23)cc(=O)n(C)c1=O,5.77%
11,COc1ccc(NC(=O)c2cccnc2C(=O)O)c(OC)c1,16.8%
12,N#CCc1ccc(NC(=O)c2ccc(S(=O)(=O)N3CCOCC3)cc2)cc1,9.26%
13,Cc1[nH]c2ccccc2c1C(=O)CSc1nc2ccccc2[nH]1,13.2%
14,FC(F)(F)c1cccc(NC(=S)NNC(=S)Nc2cccc(C(F)(F)F)c2)c1,16.8%
15,O=C(COC(=O)/C(=C/c1cccs1)c1cccs1)NC(c1ccccc1)c1ccccc1,8.44%
16,Cc1nc2ccccc2nc1OCC(=O)Nc1ccc2ccccc2c1,11.6%
17,OC(c1ccc(F)cc1)C(CN1CCOCC1)c1ccccc1 (centres unmarked),12.4%
18,CN1CCN(C(=O)C2CC(=O)N(c3ccc(Cl)cc3)C2)CC1 (centres unmarked),-0.519%
19,Br.NS(=O)(=O)c1ccc(Nc2nc(-c3cccc([N+](=O)[O-])c3)cs2)cc1,9.19%
20,Cn1cccc1Cc1nnc(SCC(=O)NC2CCCCC2)n1-c1ccc(F)cc1,2.44%
21,Cc1ccc(S(=O)(=O)N2CCN(C(=O)COC(=O)CNC(=O)c3ccccc3)CC2)c(C)c1,5.56%
22,COc1cc2nc(Cl)nc(N3CCCCC3)c2cc1OC,6.38%

row,SMILES,"hERG current change (%, negative = inhibition) at 1uM"
1,COc1ccc(CCNCC(O)Cn2c3ccccc3c3ccccc32)cc1OC (centres unmarked),18.5%
2,Cn1cc(/C=N/NC(N)=S)c2ccccc21,9.98%
3,Cc1ccc(NC(=O)CN2C(=O)NC(Cc3c[nH]c4ccccc34)C2=O)cc1S(=O)(=O)N1CCCCC1 (centres unmarked),-8.36%
4,Cc1cc(=O)oc2c(C)c(OCC(=O)N3C[C@H]4C[C@@H](C3)c3cccc(=O)n3C4)ccc12,0.758%
5,Cc1cc(C)c2c(CN3CCN(Cc4ccc5c(c4)OCO5)CC3)cc(=O)oc2c1C,2.67%
6,CCN(C(=O)c1ccco1)c1nc(CC(=O)Nc2ccc(Cl)cc2)cs1,9.87%
7,O=C(COc1ccccc1O)Nc1ccc(Cl)cc1,8.37%
8,COc1ccccc1C(CNC(=O)c1ccc(NS(=O)(=O)c2ccc(F)c(C)c2)cc1)N(C)C (centres unmarked),1.09%
9,O=C(CSc1nc2ccccc2c(=O)n1-c1ccccc1)NCC1CCCO1 (centres unmarked),18.1%
10,CSc1ncc(C(=O)Nc2cccc(C)c2C)c(C)n1,4.46%
11,CC(=O)c1ccccc1NC(=O)COC(=O)/C=C/c1ccc(C)o1,4.12%
12,Cc1c(NC(=O)C(C)OC(=O)COc2ccc(C#N)cc2)c(=O)n(-c2ccccc2)n1C (centres unmarked),-15%
13,CCOC(=O)c1cnc(Nc2ccc(OCC)cc2)nc1C,13%
14,N#CC(C(=O)NCCc1ccccc1)c1nc2ccccc2nc1N1CCCCC1 (centres unmarked),4.11%
15,CCCC(O)(CCN(C)C)c1ccc(OC)cc1 (centres unmarked),9.83%
16,O=C(CSc1nccc(=O)[nH]1)c1cc2ccccc2o1,10%
17,COc1ccccc1CNC(=O)CCCc1ccccc1,5.66%
18,CC1CCN(CC2C(=O)O[C@@H]3C[C@@]4(C)CCC[C@H](C)C4=C[C@H]23)CC(C)(C)C1 (some centres unmarked),11.3%
19,O=S(=O)(NCC(c1cccs1)N1CCc2ccccc2C1)c1ccccc1 (centres unmarked),-0.251%
20,Cn1nc(C(=O)Nc2ccc(Cl)c(S(=O)(=O)N3CCOCC3)c2)c2ccccc2c1=O,8.15%
21,Cc1ccc(C(=O)Nc2ccnc(-c3ccncc3)n2)cc1,10.9%
22,CC(C)CC(NC(=O)C(NC(=O)OC(C)(C)C)C(C)C)C(=O)NC(CCC(=O)OCc1ccccc1)C(N)=O (stereo not drawn) (Boc-Val-Leu-Glu(OBn)-NH2; configuration not given here),6.39%

row,SMILES,"hERG current change (%, negative = inhibition) at 1uM"
1,Cc1cc(C)n2nc(CC(=O)NCc3ccc(F)cc3)nc2n1,5.55%
2,CCCCNC(=O)CNC(=S)N(Cc1cc(OC)c(OC)c(OC)c1)C1CCCC1,2.86%
3,COCCNC(=O)N1[C@H]2CC[C@@H]1C(C(=O)OC)=C(c1ccc(-c3ccccc3)c(F)c1)C2,5.14%
4,COc1ccc(S(=O)(=O)N2CCCCCC2)cc1C(=O)NCCc1ccc(F)cc1,6.54%
5,Cc1ccc([N+](=O)[O-])cc1-c1ccc(/C=N\n2nnnc2N)o1,9.61%
6,O=C(NCCCn1ccnc1)c1cc(-c2ccc(Br)cc2)on1,-6.14%
7,COc1ccc(CC(=O)Nc2nc(-c3ccncc3)cs2)cc1,0.326%
8,CCOC(=O)c1ccc(NC(=O)Cn2cc3c(n2)CCC(C)C3)cc1 (centres unmarked),3.01%
9,CCC1=NN2C(=N)/C(=C\c3ccc(SCc4ccco4)o3)C(=O)N=C2S1,18%
10,COC(=O)c1cc2c(cc1Cl)SC(=NCCCN1CCOCC1)NS2(=O)=O,2.61%
11,O=C(Cc1c(F)cccc1Cl)Nc1ncc([N+](=O)[O-])s1,10.1%
12,Cc1ccccc1-c1noc(-c2ccccc2C(=O)NCC2CCCO2)n1 (centres unmarked),7.67%
13,N/C(Cc1ccc([N+](=O)[O-])cc1)=N\OC(=O)c1ccc2ccccc2c1,4.74%
14,COCCC(=O)N1CCC(Oc2ccc(C(=O)N3CCCCCCC3)cc2)CC1,12.2%
15,COc1ccc(C(=O)NCC(=O)Nc2cccc(S(=O)(=O)NCc3ccco3)c2)cc1OC,10.7%
16,Cc1ccn2cc(CCNS(=O)(=O)c3ccc([N+](=O)[O-])cc3)nc2c1,-18.3%
17,Cc1cccc(Cn2c(C)nc3c(N)c(C)c(C)cc32)c1,10.6%
18,CCOC(=O)c1c(NC(=O)COC(=O)Cn2cnc3ccccc32)sc2c1CCC(C)C2 (centres unmarked),5.51%
19,O=C(CSc1nc2ccccc2n1Cc1ccccc1)N/N=C/c1ccco1,-29.7%
20,Fc1cccc(Cl)c1CNn1cn[nH]c1=S,-13.2%

# Source: article PMC4336329 (PLoS ONE, 2015)
